Binding data for six molecules are collected here from publication PMC7076015.

Amino acid sequences for entries named in this document (tags omitted). A change or cut given only in a name is not applied to a line headed by its entry.
UniProt A9QM74: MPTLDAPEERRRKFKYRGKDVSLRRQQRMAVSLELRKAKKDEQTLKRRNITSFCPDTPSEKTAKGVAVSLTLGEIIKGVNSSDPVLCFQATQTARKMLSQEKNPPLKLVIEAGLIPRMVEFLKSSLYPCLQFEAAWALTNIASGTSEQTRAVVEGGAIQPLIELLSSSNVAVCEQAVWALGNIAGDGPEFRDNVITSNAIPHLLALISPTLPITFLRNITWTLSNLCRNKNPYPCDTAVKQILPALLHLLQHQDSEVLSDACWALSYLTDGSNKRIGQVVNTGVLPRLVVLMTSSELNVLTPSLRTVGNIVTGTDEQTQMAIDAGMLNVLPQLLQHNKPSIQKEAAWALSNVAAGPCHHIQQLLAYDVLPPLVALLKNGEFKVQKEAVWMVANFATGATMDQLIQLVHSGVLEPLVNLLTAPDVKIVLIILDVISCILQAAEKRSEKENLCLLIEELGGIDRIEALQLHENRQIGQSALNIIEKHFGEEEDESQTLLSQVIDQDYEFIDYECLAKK

Assay [1] addresses MBP-KPNA7 (wild type) (human) (UniProt A9QM74). Description: pull-down; MBP and MBP-KPNA7 proteins on amylose resin, neuronal lysates from 4-week old 9429A hiPSC-derived neurons; western blot; only the target purified. On the technique in general: In western blotting, separated proteins are transferred to a membrane and probed.
The target in another assay is MBP-KPNA7(P339A) (human) (UniProt A9QM74). The description is as above.
Another assay has as its target HA-KPNA7 (human) (UniProt A9QM74). Description: co-IP; anti-HA agarose, extracts of HEK293T and HEK293T(HA-KPNA7) cells transfected with Flag-hnRNP R constructs; Flag blot normalized to input.
Assay [2] concerns the target hnRNP U (endogenous, HEK293T) (human (endogenous in HEK293T)), Q00839. Description: co-IP; hnRNP U antibody on protein G beads, HEK293T extract; western blot for hnRNP R. The settings on record: remark: other sources report otherwise.

These are yes or no findings as the source states them, for the method shown. In cells and extracts the contact can be indirect. Some entries that bind do so weakly or less than the wild type. For some of these results: Where a sequence is shown, tags or fusion partners need not be part of it.

B1: hnRNP R (endogenous, iPSC-derived neurons) (protein, UniProt O43390 1-633)
chain: MANQVNGNAVQLKEEEEPMDTSSVTHTEHYKTLIEAGLPQKVAERLDEIFQTGLVAYVDLDERAIDALREFNEEGALSVLQQFKESDLSHVQNKSAFLCGVMKTYRQREKQGSKVQESTKGPDEAKIKALLERTGYTLDVTTGQRKYGGPPPDSVYSGVQPGIGTEVFVGKIPRDLYEDELVPLFEKAGPIWDLRLMMDPLSGQNRGYAFITFCGKEAAQEAVKLCDSYEIRPGKHLGVCISVANNRLFVGSIPKNKTKENILEEFSKVTEGLVDVILYHQPDDKKKNRGFCFLEYEDHKSAAQARRRLMSGKVKVWGNVVTVEWADPVEEPDPEVMAKVKVLFVRNLATTVTEEILEKSFSEFGKLERVKKLKDYAFVHFEDRGAAVKAMDEMNGKEIEGEEIEIVLAKPPDKKRKERQAARQASRSTAYEDYYYHPPPRMPPPIRGRGRGGGRGGYGYPPDYYGYEDYYDDYYGYDYHDYRGGYEDPYYGYDDGYAVRGRGGGRGGRGAPPPPRGRGAPPPRGRAGYSQRGAPLGPPRGSRGGRGGPAQQQRGRGSRGSRGNRGGNVGGKRKADGYNQPDSKRRQTNNQQNWGSQPIAQQPLQQGGDYSGNYGYNNDNQEFYQDTYGQQWK
As to B1, the binding result (in assay [1]; with MBP-KPNA7(P339A) (human)) was “binds” throughout.

B2: Flag-myc-hnRNP R AAA^584−586 (protein, UniProt O43390 1-633)
chain: MANQVNGNAVQLKEEEEPMDTSSVTHTEHYKTLIEAGLPQKVAERLDEIFQTGLVAYVDLDERAIDALREFNEEGALSVLQQFKESDLSHVQNKSAFLCGVMKTYRQREKQGSKVQESTKGPDEAKIKALLERTGYTLDVTTGQRKYGGPPPDSVYSGVQPGIGTEVFVGKIPRDLYEDELVPLFEKAGPIWDLRLMMDPLSGQNRGYAFITFCGKEAAQEAVKLCDSYEIRPGKHLGVCISVANNRLFVGSIPKNKTKENILEEFSKVTEGLVDVILYHQPDDKKKNRGFCFLEYEDHKSAAQARRRLMSGKVKVWGNVVTVEWADPVEEPDPEVMAKVKVLFVRNLATTVTEEILEKSFSEFGKLERVKKLKDYAFVHFEDRGAAVKAMDEMNGKEIEGEEIEIVLAKPPDKKRKERQAARQASRSTAYEDYYYHPPPRMPPPIRGRGRGGGRGGYGYPPDYYGYEDYYDDYYGYDYHDYRGGYEDPYYGYDDGYAVRGRGGGRGGRGAPPPPRGRGAPPPRGRAGYSQRGAPLGPPRGSRGGRGGPAQQQRGRGSRGSRGNRGGNVGGKRKADGYNQPDSAAAQTNNQQNWGSQPIAQQPLQQGGDYSGNYGYNNDNQEFYQDTYGQQWK
On to B2, for which the binding result in the assay with HA-KPNA7 (human) is given as “no binding”.

B3: Flag-myc-hnRNP R AAA^414−416 (protein, UniProt O43390 1-633)
chain: MANQVNGNAVQLKEEEEPMDTSSVTHTEHYKTLIEAGLPQKVAERLDEIFQTGLVAYVDLDERAIDALREFNEEGALSVLQQFKESDLSHVQNKSAFLCGVMKTYRQREKQGSKVQESTKGPDEAKIKALLERTGYTLDVTTGQRKYGGPPPDSVYSGVQPGIGTEVFVGKIPRDLYEDELVPLFEKAGPIWDLRLMMDPLSGQNRGYAFITFCGKEAAQEAVKLCDSYEIRPGKHLGVCISVANNRLFVGSIPKNKTKENILEEFSKVTEGLVDVILYHQPDDKKKNRGFCFLEYEDHKSAAQARRRLMSGKVKVWGNVVTVEWADPVEEPDPEVMAKVKVLFVRNLATTVTEEILEKSFSEFGKLERVKKLKDYAFVHFEDRGAAVKAMDEMNGKEIEGEEIEIVLAKPPDAAAKERQAARQASRSTAYEDYYYHPPPRMPPPIRGRGRGGGRGGYGYPPDYYGYEDYYDDYYGYDYHDYRGGYEDPYYGYDDGYAVRGRGGGRGGRGAPPPPRGRGAPPPRGRAGYSQRGAPLGPPRGSRGGRGGPAQQQRGRGSRGSRGNRGGNVGGKRKADGYNQPDSKRRQTNNQQNWGSQPIAQQPLQQGGDYSGNYGYNNDNQEFYQDTYGQQWK
As to B3, the binding result with HA-KPNA7 (human) is “binds”.

B4: hnRNP R (endogenous, HEK293T), O43390 1-633 (protein)
chain: MANQVNGNAVQLKEEEEPMDTSSVTHTEHYKTLIEAGLPQKVAERLDEIFQTGLVAYVDLDERAIDALREFNEEGALSVLQQFKESDLSHVQNKSAFLCGVMKTYRQREKQGSKVQESTKGPDEAKIKALLERTGYTLDVTTGQRKYGGPPPDSVYSGVQPGIGTEVFVGKIPRDLYEDELVPLFEKAGPIWDLRLMMDPLSGQNRGYAFITFCGKEAAQEAVKLCDSYEIRPGKHLGVCISVANNRLFVGSIPKNKTKENILEEFSKVTEGLVDVILYHQPDDKKKNRGFCFLEYEDHKSAAQARRRLMSGKVKVWGNVVTVEWADPVEEPDPEVMAKVKVLFVRNLATTVTEEILEKSFSEFGKLERVKKLKDYAFVHFEDRGAAVKAMDEMNGKEIEGEEIEIVLAKPPDKKRKERQAARQASRSTAYEDYYYHPPPRMPPPIRGRGRGGGRGGYGYPPDYYGYEDYYDDYYGYDYHDYRGGYEDPYYGYDDGYAVRGRGGGRGGRGAPPPPRGRGAPPPRGRAGYSQRGAPLGPPRGSRGGRGGPAQQQRGRGSRGSRGNRGGNVGGKRKADGYNQPDSKRRQTNNQQNWGSQPIAQQPLQQGGDYSGNYGYNNDNQEFYQDTYGQQWK
As to B4, the binding result in assay [2] was “no binding”.

B5: Flag-myc-hnRNP R AAA^572−574 (protein, UniProt O43390 1-633)
chain: MANQVNGNAVQLKEEEEPMDTSSVTHTEHYKTLIEAGLPQKVAERLDEIFQTGLVAYVDLDERAIDALREFNEEGALSVLQQFKESDLSHVQNKSAFLCGVMKTYRQREKQGSKVQESTKGPDEAKIKALLERTGYTLDVTTGQRKYGGPPPDSVYSGVQPGIGTEVFVGKIPRDLYEDELVPLFEKAGPIWDLRLMMDPLSGQNRGYAFITFCGKEAAQEAVKLCDSYEIRPGKHLGVCISVANNRLFVGSIPKNKTKENILEEFSKVTEGLVDVILYHQPDDKKKNRGFCFLEYEDHKSAAQARRRLMSGKVKVWGNVVTVEWADPVEEPDPEVMAKVKVLFVRNLATTVTEEILEKSFSEFGKLERVKKLKDYAFVHFEDRGAAVKAMDEMNGKEIEGEEIEIVLAKPPDKKRKERQAARQASRSTAYEDYYYHPPPRMPPPIRGRGRGGGRGGYGYPPDYYGYEDYYDDYYGYDYHDYRGGYEDPYYGYDDGYAVRGRGGGRGGRGAPPPPRGRGAPPPRGRAGYSQRGAPLGPPRGSRGGRGGPAQQQRGRGSRGSRGNRGGNVGGAAAADGYNQPDSKRRQTNNQQNWGSQPIAQQPLQQGGDYSGNYGYNNDNQEFYQDTYGQQWK
As for B5, in the assay with HA-KPNA7 (human), the binding entry is listed as “no binding”.

B6: Flag-myc-hnRNP R (wild type) (protein, UniProt O43390 1-633)
chain: MANQVNGNAVQLKEEEEPMDTSSVTHTEHYKTLIEAGLPQKVAERLDEIFQTGLVAYVDLDERAIDALREFNEEGALSVLQQFKESDLSHVQNKSAFLCGVMKTYRQREKQGSKVQESTKGPDEAKIKALLERTGYTLDVTTGQRKYGGPPPDSVYSGVQPGIGTEVFVGKIPRDLYEDELVPLFEKAGPIWDLRLMMDPLSGQNRGYAFITFCGKEAAQEAVKLCDSYEIRPGKHLGVCISVANNRLFVGSIPKNKTKENILEEFSKVTEGLVDVILYHQPDDKKKNRGFCFLEYEDHKSAAQARRRLMSGKVKVWGNVVTVEWADPVEEPDPEVMAKVKVLFVRNLATTVTEEILEKSFSEFGKLERVKKLKDYAFVHFEDRGAAVKAMDEMNGKEIEGEEIEIVLAKPPDKKRKERQAARQASRSTAYEDYYYHPPPRMPPPIRGRGRGGGRGGYGYPPDYYGYEDYYDDYYGYDYHDYRGGYEDPYYGYDDGYAVRGRGGGRGGRGAPPPPRGRGAPPPRGRAGYSQRGAPLGPPRGSRGGRGGPAQQQRGRGSRGSRGNRGGNVGGKRKADGYNQPDSKRRQTNNQQNWGSQPIAQQPLQQGGDYSGNYGYNNDNQEFYQDTYGQQWK
Turning to B6, the binding entry with HA-KPNA7 (human) is given as “binds”.
